The other results are listed elsewhere or left out.

The record followed here is the supplement of paper PMC11417369.

The subject of the assay is PfAP2-HC AP2 domain (GST-tagged). The experiment in a line: gcPBM binding intensity (ln(normalized median fluorescence intensity)); higher = stronger DNA binding. The procedure, abridged:
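The binding buffer was 1× PBS containing 1% milk, 0.2 mg/ml BSA, 0.5% salmon testes DNA and 0.03% Triton X-100. In it, GST-tagged P. falciparum DNA-binding domains expressed in E. coli were applied for 1 h to an Agilent 4 × 180k array of primer-extended double-stranded 36-bp intergenic genomic probes plus negative controls. Binding intensity, read with Alexa488 anti-GST antibody and a 488 nm scan, is the highest Masliner-normalised natural-log median intensity across replicate spots of either probe orientation.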
With “CAATTTATAAAGAAAACACACATATACATAAATACA [CACACA_site4829]”, the “gcPBM binding intensity (ln)” value came out at 10.1.

With “AATTATATATAAAGAAGTACTATTTCAAGGAGTTTT [XGTACX_site3837]”, the “gcPBM binding intensity (ln)” value was determined as 9.63.

For “AATAAAACATCATCATGTACAAAATTCGTCTTTGTA [XGTACX_site4821]”, the “gcPBM binding intensity (ln)” value was 9.61.

Take “TCAAATTTTCAACATTGTACATAAATGTATAAATAT [XGTACX_site6042]”: the “gcPBM binding intensity (ln)” value came to 9.47.

Regarding “CAAAATATATATGACACACACAAAAAAAGTATATTA [CACACA_site1589]”, the “gcPBM binding intensity (ln)” value is 10.1.

With “ATGTCACAATTTTTCACACACAAAATTTAAATACAT [CACACA_site5168]”, the “gcPBM binding intensity (ln)” value is 9.9.

For “TATTATTATATATATAGTACATAAAATATAAAAAAA [XGTACX_site2060]”, the “gcPBM binding intensity (ln)” value turned out to be 9.63.

Take “TTTTTTAAATTATATTATAGCAAATAAATATTAAAA [CACACA_negctrl_site1655]”: the “gcPBM binding intensity (ln)” value was determined as 9.03.

Regarding “TTTTTTTTTTAAATGTGTCCTCATTATAATATATGT [XGTACX_site5331]”, the “gcPBM binding intensity (ln)” value stood at 9.66.

“TAATTATGCGGACACACACACACACCCAACTAAAAA [CACACA_site5427]”: the “gcPBM binding intensity (ln)” value amounted to 10.9.

With “GCATTATTATATATTTGTACATATTTTTTTTTAAAA [XGTACX_site5436]”, the “gcPBM binding intensity (ln)” value worked out at 9.68.

For the sequence TTTTTATTTTCATATGTGCACTTATATATATATATA, the “gcPBM binding intensity (ln)” value amounted to 9.89.

Turning to “TTTTTATATAAGAAAAAATTATAACAATTTGTTAAT [XGTACX_negctrl_site422]”, the “gcPBM binding intensity (ln)” value came to 9.24.

“TATTGATATATATATATATATATATGTATATACTTA [GTGCAC_negctrl_site111]”: the “gcPBM binding intensity (ln)” value turned out to be 9.78.

Take “TTCGCTGTTTTAATTAGTACTTATATATAATATTAT [XGTACX_site1149]”: the “gcPBM binding intensity (ln)” value was 10.

In the case of “CTAAACCTTTTGAGCACACATATATATATATATATA [CACACA_site1782]”, the “gcPBM binding intensity (ln)” value was 9.7.

“TTTTATGTTTTAAAATGTACGTGTCAATGAATAAGT [XGTACX_site6239]”: the “gcPBM binding intensity (ln)” value was found to be 9.51.

As for “AAATTTTAATTAGACTGTACACATTTTAGAATAATT [XGTACX_site4819]”, the “gcPBM binding intensity (ln)” value amounted to 9.41.

Regarding “TGAATATTCATATGCACACAAATTAATATACATAAT [CACACA_site442]”, the “gcPBM binding intensity (ln)” value turned out to be 9.79.

For the sequence “TATTATAGTCCGACTTTTTAATTTCTTTATTGTTTT [CACACA_negctrl_site1381]”, the “gcPBM binding intensity (ln)” value worked out at 9.7.

As to “TTTTATTTTTAAAATTGTACATTATTATTGTTATTT [XGTACX_site1439]”, the “gcPBM binding intensity (ln)” value was determined as 9.74.

In the case of “TATTTGTTCTGATCCTTTTATTCAACTTTTTTTTTT [CACACA_negctrl_site978]”, the “gcPBM binding intensity (ln)” value came to 9.72.

As to “GGCTAAAAGTTGCACACACACAAAAAAAAAAAAAAA [CACACA_site7531]”, the “gcPBM binding intensity (ln)” value turned out to be 9.92.

With “ACCTTAATTATAATAACACACGAAAAGTGGACACAT [CACACA_site1750]”, the “gcPBM binding intensity (ln)” value came out at 9.86.
